Values marked as one replicate rest on one cluster of the flow cell; about a third of the high ones do not repeat.
tested on: ATP; assay: switch fluorescence ratio, 500 uM ATP over buffer (Cy3 cluster intensity, sum of 5 cycles each) (fold (ratio)); higher = stronger signal-on switching upon ATP binding; sequences stand for … in TCGTCGGCAGCGTCAGATGTGTATAAGAGACAGTTTTTTTTTTTTTTTTTTTTTTTTT…TC; settings: aptamer strand: ATP DNA aptamer (quencher-CACCTGGGGGAGTATTGCGGAGGAAGG + anchor), 100 nM annealed; ATP concentration: 500 uM; one replicate
Outline: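 Cy3-labelled switching-strand clusters on a modified Illumina MiSeq flow-cell were annealed to 100 nM quencher-labelled ATP aptamer, imaged in selection buffer, then imaged after 15 min with 500 uM ATP at 22 °C. Five buffer/ATP cycles ran, with NaOH stripping and re-annealing between them. The fluorescence ratio is summed target-cycle over summed buffer-cycle Cy3 intensity per cluster, averaged per switch-domain sequence. Clusters outside 100-1000 RFU were excluded.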
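Further: ATP exposure 15 min at 22 °C before imaging.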

Sequence	switch fluorescence ratio
GTCGGGCAGC	1.01
GTCGGGCCTA	1.04
GTCGGTGCTT	0.981
GTCGGTTGTA	0.972
GTCGTAAATT	0.98
GTCGTATTCA	1.01
GTCGTCAGTG	0.974
GTCGTTGAAA	0.997
GTCGTTTAAT	0.97
GTCGTTTTTA	0.992
GTCTAAAATG	0.942
GTCTAGTCTG	0.973
GTCTATAGGC	1.06
GTCTATGCCT	1.03
GTCTGCAGAA	0.981
GTCTGCAGTG	0.983
GTCTGGTCAG	1.04
GTCTTAAACC	1.07
GTCTTAGTAA	1
GTCTTGGTCT	0.955
GTCTTGTAAT	0.946
GTCTTTTATT	1.01
GTGAAAACAG	1.06
GTGAAACAGG	1.03
GTGAAAGTTG	1.11

Sequence	switch fluorescence ratio
GTGAAGATAG	0.987
GTGAAGGGCG	1.01
GTGAATAATC	1.02
GTGAATACTG	1.13
GTGAATCTTC	1
GTGACAGCGT	1.04
GTGACCGGTC	1.01
GTGACGCAGA	1.84
GTGACTTCCG	0.983
GTGAGAACAT	1.01
GTGAGACAGA	0.994
GTGAGACTAG	1.04
GTGAGAGATA	1.02
GTGAGCAACT	1.03
GTGAGCACTC	1.07
GTGAGCTGGG	0.963
GTGAGGCACA	1.01
GTGAGGTCG	0.954
GTGAGTAGCC	0.999
GTGAGTATCA	0.956
GTGATAAGTA	0.982
GTGATAATTG	1.18
GTGATATTTT	0.973
GTGATCAG	0.992
GTGATGTGGC	0.99

Sequence	switch fluorescence ratio
GTGATTGAGC	1.09
GTGCAATCAG	1.11
GTGCAGAGGG	0.981
GTGCAGGGAG	0.967
GTGCAGTC	1.45
GTGCATGCAC	1.02
GTGCCATTCT	1.05
GTGCCCGGCT	0.992
GTGCCTGATA	0.942
GTGCCTGGGC	1.02
GTGCGCAAGG	1.19
GTGCGCGCCA	1.03
GTGCGGAGGG	0.976
GTGCGTGGGG	1
GTGCTAGTTC	1.05
GTGCTCCTTG	1
GTGCTTAAGT	0.991
GTGCTTGATT	0.978
GTGCTTGTGC	0.982
GTGCTTTTTC	0.988
GTGGAATTAC	1.07
GTGGACAGTT	0.96
GTGGACATGA	1.03
GTGGAGGCTC	0.973
GTGGATCGAC	0.945

Sequence	switch fluorescence ratio
GTGGATCGGA	0.986
GTGGATGTGC	1.07
GTGGCATGG	0.99
GTGGCGCTGC	0.994
GTGGCGGAG	0.966
GTGGCGTGAT	1.03
GTGGCTAGG	0.984
GTGGCTGGCG	0.924
GTGGCTTCAC	0.989
GTGGGAAA	1.02
GTGGGAGACG	1.05
GTGGGATTTC	0.972
GTGGGCTCTC	1.01
GTGGGGTACC	0.975
GTGGGTGACA	0.994
GTGGGTGGAG	0.985
GTGGGTTAGT	1.05
GTGGTACGCT	0.965
GTGGTAGATA	1.01
GTGGTATCT	1.02
GTGGTATCTA	1
GTGGTATGCG	0.835
GTGGTATTCT	0.944
GTGGTCAAGA	1.04
GTGGTCGCGT	0.997
